According to PubChem BioAssay (Tox21):
Values joined by “and” are separate entries in the source; they are usually repeats but may differ in a detail not shown here. Identical values can stand only once. This list was built around the results that the source calls inconclusive (neither active nor inactive); the mix of calls is not that of the screen. Where a call stands in place of a potency, no number is given. For some of these results: Potencies beside an inconclusive call are fits to weak or partial responses and may not hold up. Some structures have more than one record in an assay (separate samples or runs), and their calls can disagree. Active and inactive are the calls of the source. Unless noted, the call rests on the fitted dose curve.

Assays:
[1] = qHTS assay to identify small molecule agonists of the farnesoid-X-receptor (FXR) signaling pathway - cell viability counter screen (AID 743218; active means well fitted curve in the direction sought with a large enough effect in the repeat runs; inconclusive means weak or mixed curves; inactive means no such curve, though single readings can be large; an effect the other way counts as inactive or inconclusive; further: nearly all actives have a fitted effect of over 45% in size; further: potency means the concentration at half of the fitted maximal effect); details: FXR-bla HEK293T viability, CellTiter-Glo luminescence, 16 h; viability change, negative = cytotoxic: at 62.6 µM (top of the series)
In short: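 Same-well cytotoxicity check on FXR-UAS-bla HEK 293T cells: 5 h attachment, 16 h compound at 37 C, CellTiter-Glo luminescence read at room temperature after 30 min.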

[2] = qHTS assay to identify small molecule agonists of the AP-1 signaling pathway (AID 1159526); details: ME-180 (cervical carcinoma) AP-1-bla reporter, beta-lactamase FRET ratio, 5 h; activation: at 76.8 µM (top of the series) unless noted; further: potency means the concentration at half of the fitted maximal effect
[3] = target: Progesterone receptor (Homo sapiens) (UniProt P06401); experiment: qHTS assay to identify small molecule antagonists of the progesterone receptor (PR) signaling pathway (AID 1346795; active means well fitted inhibition curve with a large enough effect in the signal ratio in the repeat runs, not every such curve was filed as active; inconclusive means weak or mixed curves; the % refers to the signal ratio; further: potency means the concentration at half of the fitted maximal effect); details: PR-UAS-bla HEK293T, beta-lactamase FRET ratio, 16 h; activity change, negative = inhibition: at 92.4 µM (top of the series) unless noted
In short: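 Beta-lactamase reporter, HEK293T PR-UAS-bla line; 2% charcoal-stripped FBS; 6 hr pre-incubation, 37C/5% CO2. Compound + R5020 1 nM final, 16 hr. LiveBLAzer B/G FRET substrate, 2 hr RT; fluorescence intensity read.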

[4] = qHTS assay to identify small molecule agonists of the progesterone receptor (PR) signaling pathway - cell viability counter screen (AID 1346799); further: nearly all actives have a fitted effect of over 45% in size; further: potency means the concentration at half of the fitted maximal effect
In short: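 HEK293T PR-UAS-bla, 3,000 cells/well, 2% charcoal-stripped FBS; 6 h settle, compound 16 h at 37C/5% CO2; LiveBLAzer 2 h RT, then CellTiter-Glo 30 min RT, luminescence read.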

[5] = target: Cytochrome P450 2D6 (Homo sapiens) (UniProt P10635); experiment: Cytochrome P450 Family 2 Subfamily D Member 6 (CYP2D6) small molecule antagonists: luciferase reporter qHTS assay (AID 1671196; active means well fitted curve in the direction sought with a large enough effect in the repeat runs; inconclusive means weak or mixed curves; inactive means no such curve, though single readings can be large; an effect the other way counts as inactive or inconclusive; further: nearly all actives have a fitted effect of over 50% in size; further: potency means the concentration at half of the fitted maximal effect)
In short: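 Chemicals tested for interference with CYP2D6 activity; proluciferin substrate, NADPH regeneration, 1 h at room temperature, luminescent detection.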

[6] = qHTS assay for identifying genotoxic compounds that show differential cytotoxicity against isogenic chicken DT40 cell lines with known DNA damage response pathways - wild type cell line (AID 743012; active means well fitted curve in the direction sought with a large enough effect in the repeat runs; inconclusive means weak or mixed curves; inactive means no such curve, though single readings can be large; an effect the other way counts as inactive or inconclusive; further: nearly all actives have a fitted effect of over 60% in size); details: DT40 wild type chicken cells viability, CellTiter-Glo, 40 h; activity change, negative = cytotoxicity: at 68.4 µM (top of the series) unless noted
In short: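 Endpoint: CellTiter-Glo luminescence, 30 min RT. Cells: wild type DT40, 300/well. Exposure: compounds in DMSO, 40 h, 37 C/5% CO2, after ~0.5 h pre-incubation.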

[7] = qHTS assay to identify small molecule antagonists of the thyroid receptor (TR) signaling pathway - cell viability counter screen (AID 743064; active means well fitted curve in the direction sought with a large enough effect in the repeat runs; inconclusive means weak or mixed curves; inactive means no such curve, though single readings can be large; an effect the other way counts as inactive or inconclusive; further: potency means the concentration at half of the fitted maximal effect; nearly all actives have a fitted effect of over 50% in size); details: GH3.TRE-Luc viability, CellTiter-Fluor, 24 h; activity change, negative = cytotoxic: at 70.3 µM (top of the series) unless noted
In short: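 GH3.TRE-Luc cells, 4 h pre-plating; cpd + T3 1 nM final; 37 °C 23.5 h; CellTiter-Fluor 30 min; fluorescence read.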

[8] = qHTS assay to identify small molecule antagonists of the estrogen receptor alpha (ER-alpha) signaling pathway - cell viability counter screen (AID 743074);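 further: HEK293 cells carrying ER-alpha-UAS-bla reporter stimulated with 17beta-estradiol; nearly all actives have a fitted effect of over 45% in size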; further: potency means the concentration at half of the fitted maximal effect
[9] = qHTS assay to identify small molecule antagonists of the sonic hedgehog signaling (Shh) pathway (AID 1259369); further: nearly all actives have a fitted effect of over 45% in size; further: potency means the concentration at half of the fitted maximal effect
In short: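 NIH/3T3 stable Gli1-Luc clone, 2,000 cells/well, 4hr settle; cpd + conditioned medium 24hr; Luc reagent 30min RT; luminescence.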

[10] = target: Cytochrome P450 2C19 (Homo sapiens) (UniProt P33261); experiment: Cytochrome P450 Family 2 Subfamily C Member 19 (CYP2C19) small molecule antagonists: luciferase reporter qHTS assay (AID 1671197; active means well fitted curve in the direction sought with a large enough effect in the repeat runs; inconclusive means weak or mixed curves; inactive means no such curve, though single readings can be large; an effect the other way counts as inactive or inconclusive; further: nearly all actives have a fitted effect of over 65% in size; further: potency means the concentration at half of the fitted maximal effect)
In short: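 Inhibition of CYP2C19 was scored from loss of luminescence in a P450-Glo proluciferin substrate assay, NADPH-started and run 1 h at 37C, with ketoconazole as positive control.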

[11] = qHTS assay for identifying genotoxic compounds that show differential cytotoxicity against isogenic chicken DT40 cell lines with known DNA damage response pathways - Rev3 mutant cell line (AID 743014; active means well fitted curve in the direction sought with a large enough effect in the repeat runs; inconclusive means weak or mixed curves; inactive means no such curve, though single readings can be large; an effect the other way counts as inactive or inconclusive; further: potency means the concentration at half of the fitted maximal effect; nearly all actives have a fitted effect of over 55% in size); details: chicken DT40 Rev3-/- viability, CellTiter-Glo, 40 h; activity, negative = cytotoxicity: at 68.4 µM (top of the series)
[12] = qHTS assay for small molecule agonists of the antioxidant response element (ARE) signaling pathway (AID 743202; active means well fitted activation curve with a large enough effect in the signal ratio in the repeat runs, not every such curve was filed as active; inconclusive means weak or mixed curves, or effect the other way; inactive means no such curve, though single readings can be large or run the other way; the % refers to the signal ratio); details: HepG2 ARE-bla reporter, beta-lactamase FRET, 16 h; activation: at 73.3 µM (top of the series) unless noted
In short: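 Following a 16 h, 37 C exposure of reporter HepG2 cells (ARE-driven beta-lactamase, 2,000 cells/well) to compounds, FRET substrate was applied for 2 h at room temperature and fluorescence intensity recorded.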

[13] = qHTS assay for small molecule disruptors of the mitochondrial membrane potential (AID 720635; active means well fitted curve in the direction sought with a large enough effect in the repeat runs; inconclusive means weak or mixed curves; inactive means no such curve, though single readings can be large; an effect the other way counts as inactive or inconclusive); details: HepG2 mitochondrial membrane potential, Mito-MPS dye ratio; ratio activity, negative = MMP loss: at 83.2 µM (top of the series) unless noted
In short: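 HepG2 cells (2,000/well) attached overnight at 37C, then took compound for 1 hr at 37C, 5% CO2. Mito-MPS dye was added for 30 min; fluorescence was read at 490/535 nm (monomers) and 540/590 nm (aggregates).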

[14] = target: Peroxisome proliferator-activated receptor gamma (Homo sapiens) (UniProt P37231); experiment: qHTS assay to identify small molecule antagonists of the peroxisome proliferator-activated receptor gamma (PPARg) signaling pathway (AID 743191); details: HEK293H PPARg-UAS-bla, beta-lactamase ratio, antagonist, 17 h; ratio activity, negative = inhibition: at 62.6 µM (top of the series) unless noted; further: nearly all actives have a fitted effect of over 30% in size
In short: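 GeneBLAzer PPARg UAS-bla HEK293H cells carrying a UAS-driven beta-lactamase reporter were plated at 3000 cells/well, preincubated 5 h at 37C, then given compound for 17 h at 37C; LiveBLAzer B/G FRET substrate was read after 1 h at room temperature.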

[15] = target: Cytochrome P450 1A2 (Homo sapiens) (UniProt P05177); experiment: Cytochrome P450 Family 1 Subfamily A Member 2 (CYP1A2) small molecule antagonists: luciferase reporter qHTS assay (AID 1671199; active means well fitted curve in the direction sought with a large enough effect in the repeat runs; inconclusive means weak or mixed curves; inactive means no such curve, though single readings can be large; an effect the other way counts as inactive or inconclusive; further: nearly all actives have a fitted effect of over 50% in size)
In short: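 Read-out is luminescence from luciferin detection reagent (20 min) proportional to CYP1A2 activity; compounds in DMSO preincubated 10 min with enzyme and proluciferin substrate, then NADPH regeneration solution, 1 h, room temperature.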

[16] = target: Glucocorticoid receptor (Homo sapiens) (UniProt P04150); experiment: qHTS assay to identify small molecule antagonists of the glucocorticoid receptor (GR) signaling pathway (AID 720692; active means well fitted inhibition curve with a large enough effect in the signal ratio in the repeat runs, not every such curve was filed as active; inconclusive means weak or mixed curves, or effect the other way; inactive means no such curve, though single readings can be large or run the other way; the % refers to the signal ratio; further: potency means the concentration at half of the fitted maximal effect); details: GR-bla HeLa, beta-lactamase FRET ratio, dexamethasone-stimulated, 18 h; activity change, negative = inhibition: at 58.5 µM (top of the series) unless noted
In short: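 Tox21 10K library screened in concentration-response for blockade of dexamethasone (5 nM final)-induced GRE-bla reporter activity in HeLa cells; 18 h treatment, fluorescence read.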

[17] = target: Vitamin D3 receptor (Homo sapiens) (UniProt P11473); experiment: qHTS assay to identify small molecule antagonists of the vitamin D receptor (VDR) signaling pathway (AID 743223; active means well fitted inhibition curve with a large enough effect in the signal ratio in the repeat runs, not every such curve was filed as active; inconclusive means weak or mixed curves, or effect the other way; inactive means no such curve, though single readings can be large or run the other way; the % refers to the signal ratio); details: VDR-UAS-bla HEK293T, beta-lactamase FRET ratio, 16 h; activity change, negative = inhibition: at 61 µM (top of the series) unless noted
In short: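 Beta-lactamase reporter read-out: FRET substrate fluorescence after 2 h at room temperature, following 16 h exposure of VDR-bla cells to test compound plus 3 nM (final) 1alpha,25-dihydroxyvitamin D3 agonist at 37C.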

[18] = target: Cytochrome P450 2C9 (Homo sapiens) (UniProt P11712); experiment: Cytochrome P450 Family 2 Subfamily C Member 9 (CYP2C9) small molecule antagonists: luciferase reporter qHTS assay (AID 1671198; active means well fitted curve in the direction sought with a large enough effect in the repeat runs; inconclusive means weak or mixed curves; inactive means no such curve, though single readings can be large; an effect the other way counts as inactive or inconclusive; further: nearly all actives have a fitted effect of over 50% in size; further: potency means the concentration at half of the fitted maximal effect)
In short: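 CYP2C9 activity was measured with a P450-Glo proluciferin substrate. Enzyme–substrate mix was held with compound for 10 min at room temperature, then NADPH regeneration solution was added for 1 h at 37C. Luciferin product was read as luminescence.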

[19] = target: Retinoic acid receptor RXR-alpha (Homo sapiens) (UniProt P19793); experiment: qHTS assay to identify small molecule agonists of the RXR signaling pathway (AID 1159527); details: HEK293T RXRa-UAS-bla, beta-lactamase ratio, 16 h; activation: at 76.8 µM (top of the series) unless noted; further: nearly all actives have a fitted effect of over 35% in size
In short: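 Agonist mode; 9-cis retinoic acid positive control. HEK 293T UAS-bla reporter cells, 2% charcoal-stripped FBS, 16 hr compound exposure at 37 C/5% CO2. LiveBLAzer B/G FRET substrate 2 hr RT; ex 405, em 460/530 nm.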
Tags describe the fitted curve by direction and shape or compound fluorescence and quenching.

Sequence of UniProt P37231 (P37231 whole entry, looked up): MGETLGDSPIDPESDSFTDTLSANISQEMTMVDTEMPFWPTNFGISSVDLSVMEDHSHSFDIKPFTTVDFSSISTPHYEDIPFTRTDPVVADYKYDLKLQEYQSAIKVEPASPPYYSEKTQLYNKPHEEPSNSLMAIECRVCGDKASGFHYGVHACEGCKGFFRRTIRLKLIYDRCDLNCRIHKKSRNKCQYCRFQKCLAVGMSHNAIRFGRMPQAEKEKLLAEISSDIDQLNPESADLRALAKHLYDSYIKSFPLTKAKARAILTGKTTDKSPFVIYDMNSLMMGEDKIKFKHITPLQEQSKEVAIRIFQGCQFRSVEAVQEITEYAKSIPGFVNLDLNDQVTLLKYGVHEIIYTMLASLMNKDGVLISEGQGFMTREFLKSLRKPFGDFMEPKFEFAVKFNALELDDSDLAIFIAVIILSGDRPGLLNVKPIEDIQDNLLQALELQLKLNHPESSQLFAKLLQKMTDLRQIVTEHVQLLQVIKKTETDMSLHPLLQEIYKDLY
Sequence of UniProt P10635 (P10635 whole entry, looked up): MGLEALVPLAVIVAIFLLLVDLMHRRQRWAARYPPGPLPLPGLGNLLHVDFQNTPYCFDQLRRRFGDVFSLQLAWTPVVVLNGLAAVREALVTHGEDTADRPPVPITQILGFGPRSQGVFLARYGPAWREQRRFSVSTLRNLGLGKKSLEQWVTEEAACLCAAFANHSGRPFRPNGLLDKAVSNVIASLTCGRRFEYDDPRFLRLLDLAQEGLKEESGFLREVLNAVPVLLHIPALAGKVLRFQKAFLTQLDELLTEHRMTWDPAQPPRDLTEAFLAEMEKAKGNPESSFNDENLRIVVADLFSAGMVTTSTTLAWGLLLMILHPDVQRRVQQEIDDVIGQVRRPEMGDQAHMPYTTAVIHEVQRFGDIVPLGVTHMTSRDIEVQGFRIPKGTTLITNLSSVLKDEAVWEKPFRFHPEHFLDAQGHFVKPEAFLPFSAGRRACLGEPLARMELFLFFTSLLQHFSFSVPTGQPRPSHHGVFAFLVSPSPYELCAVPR
Sequence of UniProt P19793 (P19793 whole entry, looked up): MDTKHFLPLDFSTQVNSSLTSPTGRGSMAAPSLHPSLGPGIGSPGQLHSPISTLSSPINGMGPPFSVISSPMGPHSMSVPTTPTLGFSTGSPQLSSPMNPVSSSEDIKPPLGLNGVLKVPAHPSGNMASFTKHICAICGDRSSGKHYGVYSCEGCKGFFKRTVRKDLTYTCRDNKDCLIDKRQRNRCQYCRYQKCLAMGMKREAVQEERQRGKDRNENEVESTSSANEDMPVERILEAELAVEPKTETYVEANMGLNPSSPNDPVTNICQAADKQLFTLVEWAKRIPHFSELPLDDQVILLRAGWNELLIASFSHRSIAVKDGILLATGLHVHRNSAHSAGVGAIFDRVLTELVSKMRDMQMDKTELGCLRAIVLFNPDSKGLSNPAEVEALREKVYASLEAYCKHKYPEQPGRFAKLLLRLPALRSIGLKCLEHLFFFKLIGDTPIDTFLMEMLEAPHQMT
Sequence of UniProt P11712 (P11712 whole entry, looked up): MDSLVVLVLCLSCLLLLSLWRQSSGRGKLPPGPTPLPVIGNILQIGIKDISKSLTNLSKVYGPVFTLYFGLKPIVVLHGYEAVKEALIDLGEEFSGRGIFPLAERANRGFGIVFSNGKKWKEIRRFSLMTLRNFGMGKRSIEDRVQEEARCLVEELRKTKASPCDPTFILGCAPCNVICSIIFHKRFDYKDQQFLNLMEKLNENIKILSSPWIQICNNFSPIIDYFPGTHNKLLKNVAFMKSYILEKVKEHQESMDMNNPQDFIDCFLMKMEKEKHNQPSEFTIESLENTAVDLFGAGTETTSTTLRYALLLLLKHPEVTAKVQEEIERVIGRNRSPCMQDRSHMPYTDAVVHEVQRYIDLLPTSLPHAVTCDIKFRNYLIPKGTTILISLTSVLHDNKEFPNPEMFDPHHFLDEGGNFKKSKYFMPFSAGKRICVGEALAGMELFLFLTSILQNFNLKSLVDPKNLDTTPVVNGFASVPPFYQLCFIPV
Sequence of UniProt P33261 (P33261 whole entry, looked up): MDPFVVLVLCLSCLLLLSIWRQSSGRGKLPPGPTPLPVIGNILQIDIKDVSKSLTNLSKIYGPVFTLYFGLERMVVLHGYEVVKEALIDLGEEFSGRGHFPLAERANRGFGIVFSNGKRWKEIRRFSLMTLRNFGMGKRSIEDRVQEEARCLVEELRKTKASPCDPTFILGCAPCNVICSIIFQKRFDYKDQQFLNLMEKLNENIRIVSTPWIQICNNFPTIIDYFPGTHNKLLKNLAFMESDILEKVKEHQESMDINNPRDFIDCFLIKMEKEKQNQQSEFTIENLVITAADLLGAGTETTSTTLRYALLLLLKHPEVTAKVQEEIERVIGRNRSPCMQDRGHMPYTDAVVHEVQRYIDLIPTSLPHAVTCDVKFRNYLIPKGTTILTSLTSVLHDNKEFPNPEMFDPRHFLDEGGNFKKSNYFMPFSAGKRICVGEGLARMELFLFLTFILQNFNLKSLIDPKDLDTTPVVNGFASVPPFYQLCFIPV
Sequence of UniProt P04150 (P04150 whole entry, looked up): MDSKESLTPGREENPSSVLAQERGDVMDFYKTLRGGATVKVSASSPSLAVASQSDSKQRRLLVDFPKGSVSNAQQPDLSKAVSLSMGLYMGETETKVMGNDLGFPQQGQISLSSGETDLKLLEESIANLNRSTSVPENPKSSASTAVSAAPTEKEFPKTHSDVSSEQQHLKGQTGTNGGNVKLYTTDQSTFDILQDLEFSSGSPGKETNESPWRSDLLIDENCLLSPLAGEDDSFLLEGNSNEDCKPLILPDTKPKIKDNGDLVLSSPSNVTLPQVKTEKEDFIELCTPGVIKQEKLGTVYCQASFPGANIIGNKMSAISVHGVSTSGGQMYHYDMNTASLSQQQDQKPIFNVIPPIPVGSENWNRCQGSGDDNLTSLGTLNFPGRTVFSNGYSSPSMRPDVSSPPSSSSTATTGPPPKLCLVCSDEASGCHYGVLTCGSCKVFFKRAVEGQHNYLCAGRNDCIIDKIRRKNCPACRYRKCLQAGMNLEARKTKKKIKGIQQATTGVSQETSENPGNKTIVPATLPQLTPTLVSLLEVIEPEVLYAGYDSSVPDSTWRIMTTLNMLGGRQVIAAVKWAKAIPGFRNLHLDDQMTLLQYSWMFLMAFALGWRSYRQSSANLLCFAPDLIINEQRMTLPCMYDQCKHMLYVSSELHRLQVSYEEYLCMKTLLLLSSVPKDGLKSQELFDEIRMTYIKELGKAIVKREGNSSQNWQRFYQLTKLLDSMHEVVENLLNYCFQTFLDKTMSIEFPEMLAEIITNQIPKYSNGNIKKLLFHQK
Sequence of UniProt P11473 (P11473 whole entry, looked up): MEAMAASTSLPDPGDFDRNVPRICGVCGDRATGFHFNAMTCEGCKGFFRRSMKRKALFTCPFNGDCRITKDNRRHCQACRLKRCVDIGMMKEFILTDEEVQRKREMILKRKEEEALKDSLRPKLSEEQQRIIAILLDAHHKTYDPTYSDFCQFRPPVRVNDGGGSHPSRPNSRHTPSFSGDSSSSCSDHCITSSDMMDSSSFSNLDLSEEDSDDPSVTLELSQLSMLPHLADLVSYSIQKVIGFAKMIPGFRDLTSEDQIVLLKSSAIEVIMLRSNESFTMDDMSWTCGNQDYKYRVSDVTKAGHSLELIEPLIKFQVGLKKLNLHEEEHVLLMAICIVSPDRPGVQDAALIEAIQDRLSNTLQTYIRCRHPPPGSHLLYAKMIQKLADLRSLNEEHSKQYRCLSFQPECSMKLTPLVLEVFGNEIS
Sequence of UniProt P06401 (P06401 whole entry, looked up): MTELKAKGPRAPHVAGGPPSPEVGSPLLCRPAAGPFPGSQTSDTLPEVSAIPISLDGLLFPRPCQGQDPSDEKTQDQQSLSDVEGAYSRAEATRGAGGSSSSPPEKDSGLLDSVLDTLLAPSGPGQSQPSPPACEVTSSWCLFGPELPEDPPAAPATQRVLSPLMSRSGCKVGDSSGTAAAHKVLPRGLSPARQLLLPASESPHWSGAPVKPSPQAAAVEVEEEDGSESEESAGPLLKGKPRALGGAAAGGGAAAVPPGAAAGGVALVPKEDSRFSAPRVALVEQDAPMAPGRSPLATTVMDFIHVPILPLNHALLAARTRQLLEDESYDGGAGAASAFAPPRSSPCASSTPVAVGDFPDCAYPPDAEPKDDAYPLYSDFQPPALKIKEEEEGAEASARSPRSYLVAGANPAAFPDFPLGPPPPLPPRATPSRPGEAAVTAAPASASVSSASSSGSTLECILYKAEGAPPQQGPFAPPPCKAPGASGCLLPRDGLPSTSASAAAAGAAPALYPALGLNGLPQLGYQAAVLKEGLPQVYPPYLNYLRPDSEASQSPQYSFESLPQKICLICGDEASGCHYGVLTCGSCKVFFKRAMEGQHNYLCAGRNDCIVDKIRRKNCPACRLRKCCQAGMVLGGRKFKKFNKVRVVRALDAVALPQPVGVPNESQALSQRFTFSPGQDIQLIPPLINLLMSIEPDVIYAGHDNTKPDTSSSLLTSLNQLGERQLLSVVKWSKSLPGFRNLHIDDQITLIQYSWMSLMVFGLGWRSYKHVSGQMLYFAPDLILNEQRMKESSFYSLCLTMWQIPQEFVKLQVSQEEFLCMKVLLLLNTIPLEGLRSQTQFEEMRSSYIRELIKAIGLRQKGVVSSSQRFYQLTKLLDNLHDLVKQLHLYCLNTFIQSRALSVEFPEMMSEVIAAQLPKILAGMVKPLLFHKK

COc1cc(CC#N)cc(OC)c1OC
Potency [1]: inconclusive: 29.8 µM [rising, partial curve, poor fit] | Potency [2]: inactive | Potency [3]: inactive | Potency [4]: inactive | Potency [5]: inconclusive: 0.977 µM [inhibitor, single point]

[Cl-].[Cl-].[Cl-].[Fe+3]
Potency [6]: inactive | Potency [7]: inconclusive: 27.3 µM [rising, single point] | Potency [8]: inconclusive: 21.9 µM [cytotoxic, single point] | Potency [2]: inactive | Potency [9]: inconclusive: 2.17 µM [inhibitor, partial curve, poor fit] and inconclusive: 27.3 µM [inhibitor, single point] | Potency [3]: inactive | Potency [4]: inconclusive: 9.69 µM [rising, full curve, poor fit]

COc1ccc(OC)c(C=O)c1
activation [2]: inconclusive: 8.24% | Potency [4]: inconclusive: 27.3 µM [cytotoxic, single point] | Potency [5]: inactive | Potency [10]: inconclusive: 79.6 µM [inhibitor, single point]

CC(=O)O
Potency [11]: inconclusive: 54.8 µM [cytotoxic, partial curve] | Potency [7]: inconclusive: 3.86 µM [rising, single point] | Potency [2]: inconclusive: 15.7 µM [activator, single point]

CC(C)(C)C(=O)Cl
Potency [12]: inactive | Potency [2]: inactive | Potency [3]: inconclusive: 28 µM [falling, single point]

CN1CC[C@]23c4c5ccc(O)c4O[C@H]2[C@@H](O)C=C[C@H]3[C@H]1C5
Potency [13]: inactive | Potency [8]: inactive | Potency [2]: inactive | Potency [9]: inconclusive: 38 µM [inhibitor]

CCC1(CC)C(=O)NC(=O)NC1=O
ratio activity, negative = MMP loss [13]: inconclusive: 22.5% | Potency [6]: inactive | Potency [14]: inactive | activation [12]: inconclusive: -14.8% | Potency [1]: inactive | Potency [2]: inactive | Potency [10]: inconclusive: 43.6 µM [inhibitor, single point] | Potency [15]: inactive

N=C(N)[Se]
Potency [16]: inconclusive: 61.9 µM [activator, single point] | Potency [12]: inactive | Potency [17]: inactive | Potency [2]: inactive | Potency [3]: inactive | Potency [10]: inactive

Clc1ccccc1
Potency [16]: inactive | ratio activity, negative = inhibition [14]: inconclusive: 0.145% | Potency [12]: inactive | Potency [1]: inactive | activity change, negative = inhibition [17]: inconclusive: 22.8% | Potency [2]: inactive | Potency [9]: active: 0.479 µM | Potency [18]: inactive | Potency [15]: inactive

COCCOC(=O)c1ccccc1C(=O)OCCOC
Potency [19]: inactive

CC(C)NCC(O)c1ccc(N)c(C#N)c1 (centres undefined)
Potency [14]: inactive | Potency [1]: inconclusive: 13.3 µM [cytotoxic, single point] | Potency [2]: inactive

O=C1CN=C(c2ccccc2)c2cc([N+](=O)[O-])ccc2N1
Potency [13]: inactive | Potency [14]: inactive | Potency [12]: inactive | Potency [2]: inactive | Potency [5]: inconclusive: 30.9 µM [inhibitor, partial curve] | Potency [18]: inconclusive: 30.9 µM [inhibitor, partial curve]

CCCC(C)C1(CC)C(=O)N=C(S)NC1=O (centres undefined)
Potency [17]: inactive | Potency [2]: inactive | Potency [9]: inactive

CC(CCl)OC(C)CCl (centres undefined)
Potency [19]: inactive

O=[N+]([O-])c1cc(C(F)(F)F)ccc1Cl
Potency [19]: inactive

CCCCCCCCCCCCN(C)C
Potency [13]: inactive | Potency [16]: inactive | ratio activity, negative = inhibition [14]: inconclusive: 8.54% | activation [12]: inconclusive: -6.87% | Potency [2]: inactive | activity change, negative = inhibition [3]: inconclusive: 1.48% | Potency [10]: inconclusive: 39.9 µM [inhibitor, partial curve, poor fit] | Potency [18]: inactive

ClCCCN1CCN(c2cccc(Cl)c2)CC1
viability change, negative = cytotoxic [1]: inconclusive: 2.03% | activation [2]: inconclusive: 14.2% [at 35.3 µM] | Potency [9]: inactive | Potency [3]: inconclusive: 21.1 µM [rising, partial curve] | Potency [18]: inconclusive: 17.4 µM [inhibitor]

Cc1cccc(OP(=O)(Oc2cccc(C)c2)Oc2cccc(C)c2)c1
Potency [2]: inactive | Potency [3]: active: 43.3 µM
